# The list shows a part of the results. Further columns of the screen follow, without active or inactive calls.
# Legend:
# Assay in all cases: Primary Screen for Target Class Profiling of Small Molecule Inhibitors of Methyltransferases
# [1] = molecular target: Glycine N-methyltransferase (Homo sapiens) (UniProt Q14749); details: purified enzyme, MTase-Glo SAH luminescence; measured here: GNMT inhibition; at 40 µM; stronger effect = lower value
# Outline: (§1)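 Each enzyme was assayed with SAM and its substrate. SAH formation detected by MTase-Glo luminescence; single-point 40 uM screen[…].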
# [2] = molecular target: Guanidinoacetate N-methyltransferase (Homo sapiens) (UniProt Q14353); details: purified enzyme, MTase-Glo SAH luminescence; measured here: GAMT inhibition; at 40 µM; stronger effect = lower value
# Outline: as §1
# [3] = molecular target: Histamine N-methyltransferase (Homo sapiens) (UniProt P50135); details: purified enzyme, MTase-Glo SAH luminescence; measured here: HNMT inhibition; at 40 µM; stronger effect = lower value
# Outline: as §1
# [4] = molecular target: Nicotinamide N-methyltransferase (Homo sapiens) (UniProt P40261); details: purified enzyme, MTase-Glo SAH luminescence; measured here: NNMT inhibition; at 40 µM; stronger effect = lower value
# Outline: as §1
# [5] = molecular target: Phenylethanolamine N-methyltransferase (Homo sapiens) (UniProt P11086); details: purified enzyme, MTase-Glo SAH luminescence; measured here: PNMT inhibition; at 40 µM; stronger effect = lower value
# Outline: as §1
# % is scaled to controls: 0 for no effect and ±100 for the full control effect.
Structure (SMILES),"activity change, negative = inhibition [1] [%]","activity change, negative = inhibition [2] [%]","activity change, negative = inhibition [3] [%]","activity change, negative = inhibition [4] [%]","activity change, negative = inhibition [5] [%]"
CC(CN1C(=O)c2ccc(-c3ccccc3)n2CC1(C)C(=O)NC1CCCC1)c1ccccc1 (stereo not given),6.71,0,7.54,-0.269,6.88
CC(C)c1ccc(NC(=O)Cn2c(=O)oc3cc(S(=O)(=O)N4CCCC4)ccc32)cc1,-5.3,3.72,6.95,9.8,-9.37
CN1C(=O)c2cc(C(=O)NCCCN3CCOCC3)nn2CC1(C)C(=O)NCc1ccc(F)cc1 (stereo not given),10.7,0,6.82,13,5.71
CCOc1ccccc1CN1C(=O)c2c(C(=O)OC)ncn2CC1(C)C(=O)NC1CCCCC1 (stereo not given),6.75,0,7.02,4.49,5.24
Cc1ccc(C(=O)CSc2nnc3n(CC(C)C)c(=O)c4ccc(C(=O)NC(C)C)cc4n23)cc1,3.89,0,2.32,4.33,2.8
CCOC(=O)c1cc2n(n1)CC(C)(C(=O)NC1CCCC1)N(c1ccc(OCC)cc1)C2=O (stereo not given),6.23,1.5,4.01,9.8,5.11
COc1ccc(NC(=O)CCc2nnc3n(CC(C)C)c(=O)c4ccccc4n23)cc1OC,7.72,0,5.93,5.06,-3.21
CCN1C(=O)C2(CCN(S(=O)(=O)c3cc(C)ccc3C)CC2)c2ccccc21,-3,1.61,-0.521,0.551,-5.12
CN(C)c1cccc(-c2cnc(NC(=O)c3ccncc3)c3c2CCO3)c1,-9.82,-7.46,-7.62,-14.8,-4.4
CCCn1c(=O)c2cc(F)ccc2n2c(SCc3ccccc3F)nnc12,-16.3,3.69,6.63,-14.3,6.88
CCOc1ccccc1C(=O)NC1CC(=O)N(CCc2ccc(F)cc2)C1 (stereo not given),-3.73,-14.9,-3.23,-20.2,-3.65
CCN(CC)Cc1nnc2cc(-c3nc(-c4ccccc4)no3)ccn12,-4.78,0.459,1.31,2.86,9.54
Cc1ccc(Cn2c(=O)c3ccccc3n3c(-c4ccccc4)nnc23)cc1,-7.43,3.65,6.74,1.74,-0.344
CCC(C)NC(=O)c1ccc2c(=O)n(C(C)C)c3nn(Cc4cc(C)ccc4C)c(=O)n3c2c1 (stereo not given),-0.403,4.93,-0.539,-1.69,0.551
O=C(Cn1cncn1)N1CCc2onc(C(c3ccccc3)c3ccccc3)c2C1,-4.25,-5.53,-1.68,-14.5,-3.12
Cc1ccc(-c2cn(CC3CCCN(c4cc(C)nc(N)n4)C3)nn2)cc1 (stereo not given),-8.38,-0.23,-45.5,-2.41,-5.18
O=C(c1ccc(OC(F)F)cc1)N1C[C@H](CO)C[C@H](CN2CCCC2)C1,-6.58,-7.74,-4.36,-13.6,-6.19
CCNc1ncc(CN2CCN(c3ccncc3)CC2)cn1,-2.22,-3.21,-57.9,-3.27,-0.571
C1=C(c2nc(-c3ccncc3)cc3c2ccn3Cc2cccnc2)CCOC1,-53.7,-39.5,-54.8,-46.2,-64.1
COc1ccc(C)cc1N1C(=O)Cn2cccc2C1C(=O)NC1CCC(C)CC1 (stereo not given),-0.269,7.55,-2.83,-3.48,-2.38

Structure (SMILES),"activity change, negative = inhibition [1] [%]","activity change, negative = inhibition [2] [%]","activity change, negative = inhibition [3] [%]","activity change, negative = inhibition [4] [%]","activity change, negative = inhibition [5] [%]"
CC(=O)Nc1ccc(Nc2nc3c(S(=O)(=O)c4ccc(C)cc4)nnn3c3ccc(Cl)cc23)cc1,-22.4,0,5.67,-7.15,-6.48
C/C=C/C1=CC2=C(CO1)C(=O)C(C)(O)C(OC(=O)c1c(C)cc(OC)cc1O)C2 (stereo not given),-7.56,-2.2,10.3,-16.8,-11.5
COc1cc([C@H]2c3cc(O)c(OC)cc3C[C@@H](CO[C@@H]3O[C@H](CO)[C@@H](O)[C@H](O)[C@H]3O)[C@@H]2CO)ccc1O,-0.413,-4.36,4.03,-13.7,-10.4
O=C1NC2(CCN(Cc3ccsc3)C2)Oc2ccccc21 (stereo not given),-11.1,-10.6,-4.91,-23.2,-26.8
CC1(C(=O)NC2CCCC2)Cn2c(cc3ccccc32)C(=O)N1Cc1ccccc1 (stereo not given),0.224,0.014,3.09,-0.261,-2.98
Cc1ccsc1CCNC(=O)CCc1nnc2n(CCc3ccccc3)c(=O)c3ccccc3n12,-13.7,-2.88,-8.77,-24.4,-13.8
CC(C)Cn1c(=O)c2ccccc2n2c(SCC(=O)NCc3ccccc3Cl)nnc12,-7.58,-11.9,9.43,-17.2,-4.12
COC(=O)c1cc2n(n1)CC(C)(C(=O)NC1CCCC1)N(c1ccc(F)cc1C)C2=O (stereo not given),-0.288,-0.933,3.56,2.41,-1.49
Cc1nc(-c2ccc(OC3CCN(C(=O)NC4CCCCC4)C3)cc2)no1 (stereo not given),-2.09,-2.72,-1.02,-3.89,-2.87
C=CCc1ccc(O[C@@H]2O[C@H](CO[C@@H]3O[C@H](CO)[C@@H](O)[C@H](O)[C@H]3O)[C@@H](O)[C@H](O)[C@H]2O)c(O)c1,-1.86,-22.9,0.083,-42.4,-5.62
CCC(C)NC(=O)c1ccc2c(=O)n(C(C)C)c3nn(Cc4ccccc4Cl)c(=O)n3c2c1 (stereo not given),1.58,2.12,2.07,5.03,2.6
CN1C(=O)c2cc(C(=O)NCCN3CCOCC3)nn2CC1(C)C(=O)NCc1ccccc1 (stereo not given),-3.24,-3.74,1.68,-9.15,-5.68
CCOC(=O)c1cc2n(n1)CC(C)(C(=O)NCc1ccccc1OC)N(c1ccccc1C)C2=O (stereo not given),3.84,0,7.95,3.8,2.65
CC(C)N1CCN(C(=O)C23CCCC=C2N(c2ccccc2)C(=O)CC3)CC1 (stereo not given),-4.8,-7.93,-1.55,-6.84,-8.01
COc1cc(Nc2ncc3c(n2)-c2ccc(Cl)cc2C(c2c(F)cccc2OC)=NC3)ccc1C(=O)O,-73.7,-3.78,-60.9,-38.3,-11.4
CCN(CC)c1ccc2c(O)c(C=Nc3ccc(CC(=O)O)c(-c4c5c(nc6ccccc46)CCC(C(=O)NN)C5)c3)c(=O)oc2c1 (stereo not given),-16.1,-25.7,-37.8,-56.8,-31.8
CC1CCCCC1NC(=O)C1(C)Cn2c(cc3occc32)C(=O)N1CCCc1ccccc1 (stereo not given),6.35,6.35,8.15,6.26,1.77
CC(C)c1cc2c(c(O)c1O[C@@H]1O[C@H](CO)[C@@H](O)[C@H](O)[C@H]1O)CC1(O)CCC(O)C(C)(C)C1CC2 (stereo not given in full),-4.1,-1.23,8.38,-12.1,1.39
CC1CC(C)CN(S(=O)(=O)c2ccc3c(c2)oc(=O)n3CC(=O)NCc2cccnc2)C1 (stereo not given),-1.51,0,3.86,6.73,-4.44
CCc1ccc(/C=C2/SC(=S)NC2=O)cc1,-77.2,7.8,-6.18,-22.5,3.42

Structure (SMILES),"activity change, negative = inhibition [1] [%]","activity change, negative = inhibition [2] [%]","activity change, negative = inhibition [3] [%]","activity change, negative = inhibition [4] [%]","activity change, negative = inhibition [5] [%]"
Cc1cnc(C(=O)N2CCC(c3nnc(CN4CCCC4)n3C3CC3)CC2)cn1,-2.37,-0.978,-1.44,-7.22,11.6
Cc1ccc(Nc2nccc(N(C)c3ccc4c(C)n(C)nc4c3)n2)cc1S(N)(=O)=O,-13.7,2.69,-51.9,-18.5,-2.36
COCCCNC(=O)C1(C)Cn2nc(-c3ccccc3)cc2C(=O)N1Cc1ccccc1OC (stereo not given),0.366,-0.127,2.16,1.09,-2.08
O=C1COc2ccc(-c3ccsc3)nc2CN1Cc1ccccc1,-16.4,-8.6,-7.83,-14.7,-8.91
CC(C)(C)c1nn2c(SCC(=O)Nc3cccc(F)c3)nnc2[nH]c1=O,-4.46,3.45,-6.58,-11.8,-10.7
CN(CC(=O)Nc1ccc(Cl)cc1)S(=O)(=O)c1ccc2[nH]c3c(c2c1)CCCC3,-6.21,0.065,-8.28,-13.4,-8.22
Cc1nc(C)c(CC(=O)N2CCCC(C)(Cc3ccc4c(c3)OCO4)C2)s1 (stereo not given),-10.5,-6.24,-2.42,-17.4,-15.7
COc1ccc(CNC(=O)Cn2nc3n(Cc4ccc(C)cc4)c(=O)c4ccccc4n3c2=O)cc1,5.61,0.938,6.74,8.44,5.64
COc1cccc(CNC(=O)c2ccc3c(=O)nc4c(-c5ccc(Cl)cc5)n[nH]n4c3c2)c1,-8.53,-1.77,-0.729,-2.94,-3.94
O=C(Nc1cnc(-c2ccc(Cl)cc2)nc1)c1cccs1,-0.482,-0.63,-2.03,2.94,-20.8
CCCn1ccnc1CN1CCCC12CCN(c1ccc(C(F)(F)F)cn1)CC2,-3.4,1.4,-7.72,-3.61,2
COc1cccc(N2CCN(S(=O)(=O)c3cccc(-c4nc(-c5ccccc5)no4)c3)CC2)c1,11.6,0,9.89,5.27,4.09
CN1C(=O)c2cc(C(=O)NCc3cccc(Cl)c3)nn2CC1(C)C(=O)NC1CCCCC1 (stereo not given),2.77,0.964,8.12,6.85,-5.67
O=C(COc1ccccc1)Nc1ccc2c(c1)CN(Cc1ccccc1F)C(=O)CO2,-8.63,-3.83,-9.24,-16.8,-6.08
Cc1cc(C)cc(NC(=O)Cn2nc3n(CC(C)C)c(=O)c4ccccc4n3c2=O)c1,2.72,0,5.28,2.73,-2.79
CC(C)c1noc([C@@H]2C[C@H](NC(=O)c3ccc(F)cc3)CN2C)n1,-4.22,-6.29,-2.88,-6.89,-4.76
COC(=O)c1ccc2c(c1)C1C=CCC1C(c1cccc3ccccc13)N2 (stereo not given),-8.81,-0.201,-10.8,-3.76,-8.64
C=CC(C)(O)CC[C@H]1C(=C)CCC2[C@](C)(C(=O)O)CCC[C@@]21C (stereo not given in full),-0.468,3.19,11.5,-11.4,3.39
CCC1(O)CCC12CCN(C(=O)Cc1ccccc1)CC2 (stereo not given),-2.93,-3.06,-1.78,-10.9,8.73
COc1ccc(S(=O)(=O)N2CCC[C@H]2C(=O)Nc2cc(C)cc(C)c2)cc1,-1.9,3.24,9.66,-17,-6.11
